Data reported in publication PMC13370696, “Anemia‐associated mutations disrupt the CDIN1‐Codanin1 complex in inherited congenital dyserythropoietic anemia I (CDA‐I) disease” (The Febs Journal, 2026).
Positions count from the first letter of the chain named. Numbers in names are those of the source. Results are given in words; binding and its absence hold for the method and conditions named. For some of these results: In cells and extracts the contact can be indirect. Some entries that bind do so weakly or less than the wild type. For some of these results: Where a sequence is shown, tags or fusion partners need not be part of it.

Legend:
[1] = target: T1, Codanin1 full length, Flag- or Myc-tagged, expressed in HEK293T (human) (UniProt Q8IWY9); assay: co-IP; HEK293T cotransfected with Flag- and Myc-tagged constructs; lysed in RIPA buffer; anti-FLAG M2 magnetic beads, 3 h at 4 °C; eluted with 3x Flag peptide; Western blot with anti-Flag and anti-Myc
T1 sequence: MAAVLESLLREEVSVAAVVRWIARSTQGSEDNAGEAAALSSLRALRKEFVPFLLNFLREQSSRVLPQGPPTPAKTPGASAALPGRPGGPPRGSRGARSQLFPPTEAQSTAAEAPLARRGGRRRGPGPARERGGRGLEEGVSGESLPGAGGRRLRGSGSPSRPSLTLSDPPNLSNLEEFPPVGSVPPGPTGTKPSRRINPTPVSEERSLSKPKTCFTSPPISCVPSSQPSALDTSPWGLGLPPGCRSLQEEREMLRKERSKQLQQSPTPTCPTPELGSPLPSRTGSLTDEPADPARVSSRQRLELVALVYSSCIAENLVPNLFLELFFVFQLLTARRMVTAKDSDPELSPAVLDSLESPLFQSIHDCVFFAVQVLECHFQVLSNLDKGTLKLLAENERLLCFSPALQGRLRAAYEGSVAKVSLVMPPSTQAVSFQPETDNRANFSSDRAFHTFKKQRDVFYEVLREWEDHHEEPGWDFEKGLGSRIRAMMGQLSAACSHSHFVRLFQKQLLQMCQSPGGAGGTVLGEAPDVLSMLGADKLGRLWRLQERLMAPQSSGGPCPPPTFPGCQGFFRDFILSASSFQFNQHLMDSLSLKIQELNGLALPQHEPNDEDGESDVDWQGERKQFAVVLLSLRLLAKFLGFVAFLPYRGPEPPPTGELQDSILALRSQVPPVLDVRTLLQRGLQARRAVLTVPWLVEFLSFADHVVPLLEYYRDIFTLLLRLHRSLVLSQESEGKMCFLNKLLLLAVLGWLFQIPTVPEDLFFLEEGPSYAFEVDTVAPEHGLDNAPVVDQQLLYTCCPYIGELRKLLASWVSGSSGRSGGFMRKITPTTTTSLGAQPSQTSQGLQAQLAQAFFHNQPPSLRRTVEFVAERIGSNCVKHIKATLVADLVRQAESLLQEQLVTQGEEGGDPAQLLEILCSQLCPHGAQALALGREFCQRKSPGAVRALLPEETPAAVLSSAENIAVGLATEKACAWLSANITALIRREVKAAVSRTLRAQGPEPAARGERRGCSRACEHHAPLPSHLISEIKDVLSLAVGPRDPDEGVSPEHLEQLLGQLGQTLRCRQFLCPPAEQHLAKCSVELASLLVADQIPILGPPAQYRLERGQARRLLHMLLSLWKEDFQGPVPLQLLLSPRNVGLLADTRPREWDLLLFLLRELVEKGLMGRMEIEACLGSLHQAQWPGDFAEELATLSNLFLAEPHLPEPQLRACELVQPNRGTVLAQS

[2] = target: T2, Codanin1 full length S1036F-R1042W-D1043V (FWV), expressed in HEK293T (human) (UniProt Q8IWY9); assay: as above
T2 sequence: T1 sequence with S1036F, R1042W, D1043V

[3] = target: T3, Codanin1 C-terminus (amino acids 1005-1227), Flag- or Myc-tagged, expressed in HEK293T (human) (UniProt Q8IWY9); assay: as above
T3 sequence: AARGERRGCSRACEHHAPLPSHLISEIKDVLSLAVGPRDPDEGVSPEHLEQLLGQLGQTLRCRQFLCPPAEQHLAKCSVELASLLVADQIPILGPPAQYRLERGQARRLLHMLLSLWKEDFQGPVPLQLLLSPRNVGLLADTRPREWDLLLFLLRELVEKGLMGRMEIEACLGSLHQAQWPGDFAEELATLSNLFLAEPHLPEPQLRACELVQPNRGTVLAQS

[4] = target: T4, Codanin1 C-terminus (1005-1227) S1036F-R1042W-D1043V (FWV), expressed in HEK293T (human) (UniProt Q8IWY9); assay: as above
T4 sequence: T3 sequence with S32F, R38W, D39V

[5] = target: Codanin1 C-terminus (amino acids 1005-1227), bacterial (human) (UniProt Q8IWY9); assay: SEC-MALS; CDIN1 (2 mg/mL), Codanin1_(Cterm) (2 mg/mL) or the 1:1 complex; Zenix SEC 300 column; 20 mM Tris/HCl, 150 mM NaCl, pH 8.0; both purified
[6] = target: Codanin1 C-terminus (amino acids 1005-1227), bacterial (human) (UniProt Q8IWY9); assay: SEC-SAXS; Superdex 200 Increase 5/150 GL; injected at 10 mg/mL; 20 mM Tris/HCl, 150 mM NaCl, 5% glycerol, pH 8.0; 20 °C; profiles compared with AlphaFold models (CRYSOL, OLIGOMER); both purified
[7] = target: T5, Codanin1 full length, Flag- or Myc-tagged, expressed in HEK293T (human), Q8IWY9; assay: co-IP; HEK293T cotransfected with Flag- and Myc-tagged constructs; lysed in RIPA buffer; anti-FLAG M2 magnetic beads, 3 h at 4 °C; eluted with 3x Flag peptide; Western blot with anti-Flag and anti-Myc; settings: remark: other sources report otherwise
T5 chain: T1 sequence

B1: CDAN1-interacting nuclease 1 (CDIN1), full length, bacterial (natural protein, human, UniProt Q9Y2V0 1-281, looked up)
chain: MILTKAQYDEIAQCLVSVPPTRQSLRKLKQRFPSQSQATLLSIFSQEYQKHIKRTHAKHHTSEAIESYYQRYLNGVVKNGAAPVLLDLANEVDYAPSLMARLILERFLQEHEETPPSKSIINSMLRDPSQIPDGVLANQVYQCIVNDCCYGPLVDCIKHAIGHEHEVLLRDLLLEKNLSFLDEDQLRAKGYDKTPDFILQVPVAVEGHIIHWIESKASFGDECSHHAYLHDQFWSYWNRFGPGLVIYWYGFIQELDCNRERGILLKACFPTNIVTLCHSIA
notes: CDIN1 (C15orf41), human, full length, 281 amino acids; Eluted from the Im7 column by cleavage with His-tagged Ulp1; plasmid pl21 (TriAltus); The anticipated homodimer mass is printed as 67 kDa; Alone in solution it is mainly a homodimer; also called C15orf41
- binding [1]: binds
- binding [2]: no binding
- binding [3]: binds
- binding [4]: no binding

B2: CDIN1 C156Y, expressed in HEK293T (protein, UniProt Q9Y2V0 1-281)
chain: B1 chain with C156Y
- binding [1]: binds
- binding [3]: binds

B3: Codanin1 C-terminus (amino acids 1005-1227), bacterial (domain or fragment, human, UniProt Q8IWY9 1005-1227, looked up)
chain: T3 sequence
notes: Codanin-1 (CDAN1), human, amino acids 1005-1227, codon-optimized for bacterial expression; Eluted from the Im7 column by cleavage with His-tagged Ulp1; plasmid pl21 (TriAltus); Anticipated mass is printed as 25 kDa; also called C-terminal part of Codanin1
- binding [5]: no binding (tested: 2 mg/mL)
- binding [6]: no binding (tested: 10 mg/mL injected)

B4: CDIN1 Y94C, expressed in HEK293T (protein, UniProt Q9Y2V0 1-281)
chain: B1 chain with Y94C
- binding [3]: no binding

B5: CDIN1 Y94S, expressed in HEK293T (protein, UniProt Q9Y2V0 1-281)
chain: B1 chain with Y94S
- binding [1]: no binding
- binding [3]: no binding

B6: CDIN1 L178Q, expressed in HEK293T (protein, UniProt Q9Y2V0 1-281)
chain: B1 chain with L178Q
- binding [3]: no binding

B7: CDIN1 Y94C-C156Y-L178Q (CYQ), expressed in HEK293T (protein, UniProt Q9Y2V0 1-281)
chain: B1 chain with Y94C, C156Y, L178Q
- binding [1]: no binding

B8: CDIN1 Y94S-C156Y-L178Q (SYQ), expressed in HEK293T (protein, UniProt Q9Y2V0 1-281)
chain: B1 chain with Y94S, C156Y, L178Q
- binding [1]: no binding

B9: CDIN1 Y94C, expressed in HEK293T, Q9Y2V0 1-281 (protein)
chain: B1 chain with Y94C
- binding [7]: no binding

B10: CDIN1 L178Q, expressed in HEK293T, Q9Y2V0 1-281 (protein)
chain: B1 chain with L178Q
- binding [7]: no binding
